Results reported in the supplement of paper PMC4967469.
pIC50: −log10 of the molar value. The IC50 comes from the fitted curve, where viability falls to half of the control; a limit (>, <) means that the fit lies beyond the doses tested. AUC is the area under the same curve over the 256-fold range up to the top dose, as a fraction; the more sensitive the line, the further below 1. For some assays here: A top dose marked as inferred comes from the curve model; the source does not state it. For some assays here: An entry number marks a drug with two screens in the source, which often give different values.

How the values were obtained:
Experiment in all cases: Viability of human cancer cell lines after 72 h of drug (GDSC screen)
(5Z)-7-Oxozeaenol = compound: COc1cc(O)c2c(c1)/C=C/C[C@H](O)[C@H](O)C(=O)/C=C\C[C@H](C)OC2=O [(5Z)-7-Oxozeaenol]; details: top dose 10 µM; top dose inferred
Experimental: (§1)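 Human cancer cell lines in 384-well plates, medium with 10% serum, drug for 72 h over a 256-fold dose range (nine 2-fold or five 4-fold steps up to the top dose). Adherent lines were fixed and stained with the nucleic acid dye Syto60, suspension lines read with resazurin; signal relative to control wells, capped at 0 and 100%. One two-parameter sigmoid per drug and line, fitted in a mixed model over all curves with the slope shared within a line.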

Cytarabine = compound: Nc1ccn([C@@H]2O[C@H](CO)[C@@H](O)[C@@H]2O)c(=O)n1 [Cytarabine]; details: top dose 2 µM
Experimental: as §1

Zibotentan = compound: COc1nc(C)cnc1NS(=O)(=O)c1cccnc1-c1ccc(-c2nnco2)cc1 [Zibotentan]; details: top dose 20 µM; top dose inferred
Experimental: as §1

GSK269962A = compound: CCn1c(-c2nonc2N)nc2cnc(Oc3cccc(NC(=O)c4ccc(OCCN5CCOCC5)cc4)c3)cc21 [GSK269962A]; details: top dose 5 µM; screen: GDSC drug entry 1192; top dose inferred
Experimental: as §1

CHIR-99021 = compound: Cc1cnc(-c2cnc(NCCNc3ccc(C#N)cn3)nc2-c2ccc(Cl)cc2Cl)[nH]1 [CHIR-99021]
Experimental: as §1

MPS-1-IN-1 = compound: COc1cc(N2CCC(O)CC2)ccc1Nc1cc(Nc2ccccc2S(=O)(=O)C(C)C)c2cc[nH]c2n1 [MPS-1-IN-1]; details: top dose 20 µM; top dose inferred
Experimental: as §1

QL-X-138 = compound: C=CC(=O)Nc1cc(-n2c(=O)ccc3cnc4ccc(-c5cn[nH]c5)cc4c32)ccc1C [QL-X-138]; details: top dose 10.24 µM; top dose inferred
Experimental: as §1

Thapsigargin = compound: C/C=C(/C)C(=O)O[C@H]1C(C)=C2[C@H]([C@@H]1OC(=O)CCCCCCC)[C@@](C)(OC(C)=O)C[C@H](OC(=O)CCC)[C@@]1(O)[C@H]2OC(=O)[C@@]1(C)O [Thapsigargin]; details: top dose 0.512 µM; top dose inferred
Experimental: as §1

KU-55933 = compound: O=c1cc(-c2cccc3c2Sc2ccccc2S3)oc(N2CCOCC2)c1 [KU-55933]; details: top dose 10 µM
Experimental: as §1

ABT-888 = compound: C[C@]1(c2nc3c(C(N)=O)cccc3[nH]2)CCCN1 [ABT-888]; details: top dose 5 µM; top dose inferred
Experimental: as §1

ABT-869 = compound: Cc1ccc(F)c(NC(=O)Nc2ccc(-c3cccc4[nH]nc(N)c34)cc2)c1 [ABT-869]; details: top dose 1.024 µM; top dose inferred
Experimental: as §1

CP466722 = compound: COc1cc2ncnc(-n3nc(-c4ccccn4)nc3N)c2cc1OC [CP466722]; details: top dose 16 µM; top dose inferred
Experimental: as §1

[1] = top dose 2.56 µM, screen: GDSC drug entry 154
[2] = top dose 10 µM, screen: GDSC drug entry 1241, top dose inferred

Row | Cell Line | AUC ((5Z)-7-Oxozeaenol) | pIC50 ((5Z)-7-Oxozeaenol) | AUC (Cytarabine) | pIC50 (Cytarabine) | AUC (Zibotentan) | pIC50 (Zibotentan) | AUC (GSK269962A) | pIC50 (GSK269962A) | AUC (CHIR-99021; [1]) | pIC50 (CHIR-99021; [1]) | AUC (CHIR-99021; [2]) | pIC50 (CHIR-99021; [2]) | AUC (MPS-1-IN-1) | pIC50 (MPS-1-IN-1) | AUC (QL-X-138) | pIC50 (QL-X-138) | AUC (Thapsigargin) | pIC50 (Thapsigargin) | AUC (KU-55933) | pIC50 (KU-55933) | AUC (ABT-888) | pIC50 (ABT-888) | AUC (ABT-869) | pIC50 (ABT-869) | AUC (CP466722) | pIC50 (CP466722)
1 | GMS-10 (glioma, adherent) | 0.624 | 5.86 | 0.674 | 6.42 | 0.986 | < 4.70 | 0.904 | < 5.30 | 0.987 | < 5.59 | 0.953 | < 5.00 | 0.988 | < 4.70 | 0.935 | < 4.99 | 0.982 | < 6.29 | 0.972 | < 5.00 | 0.988 | < 5.30 | 0.988 | < 5.99 | 0.988 | < 4.80
2 | H2369 (mesothelioma, adherent) | 0.689 | 5.67 | 0.35 | 7.33 | 0.98 | < 4.70 | 0.788 | 5.64 | 0.985 | < 5.59 | 0.972 | < 5.00 | 0.969 | < 4.70 | 0.931 | < 4.99 | 0.081 | > 8.70 | 0.978 | < 5.00 | 0.985 | < 5.30 | 0.983 | < 5.99 | 0.956 | < 4.80
3 | H2373 (mesothelioma, adherent) | 0.682 | 5.64 | 0.622 | 6.53 | 0.981 | < 4.70 | 0.819 | 5.42 | 0.974 | < 5.59 | 0.98 | < 5.00 | 0.93 | < 4.70 | 0.797 | 5.20 | 0.438 | 7.68 | 0.977 | < 5.00 | 0.983 | < 5.30 | 0.983 | < 5.99 | 0.842 | 4.80
4 | H2461 (mesothelioma, adherent) | 0.715 | 5.52 | 0.833 | 5.75 | 0.979 | < 4.70 | 0.904 | < 5.30 | 0.983 | < 5.59 | 0.862 | < 5.00 | 0.983 | < 4.70 | 0.939 | < 4.99 | 0.376 | 7.88 | 0.977 | < 5.00 | 0.982 | < 5.30 | 0.982 | < 5.99 | 0.921 | < 4.80
5 | H2595 (mesothelioma, adherent) | 0.771 | 5.27 | 0.715 | 6.18 | 0.976 | < 4.70 | 0.92 | < 5.30 | 0.951 | < 5.59 | 0.769 | 5.27 | 0.981 | < 4.70 | 0.854 | < 4.99 | 0.533 | 7.39 | 0.947 | < 5.00 | 0.965 | < 5.30 | 0.974 | < 5.99 | 0.914 | < 4.80
6 | H2731 (mesothelioma, adherent) | 0.746 | 5.45 | 0.646 | 6.47 | 0.977 | < 4.70 | 0.941 | < 5.30 | 0.984 | < 5.59 | 0.865 | < 5.00 | 0.756 | 5.11 | 0.89 | < 4.99 | 0.376 | 7.86 | 0.979 | < 5.00 | 0.98 | < 5.30 | 0.984 | < 5.99 | 0.795 | 5.06
7 | H2795 (mesothelioma, adherent) | 0.696 | 5.66 | 0.953 | < 5.70 | 0.984 | < 4.70 | 0.977 | < 5.30 | 0.987 | < 5.59 | 0.983 | < 5.00 | 0.969 | < 4.70 | 0.735 | 5.53 | 0.753 | 6.77 | 0.884 | < 5.00 | 0.969 | < 5.30 | 0.98 | < 5.99 | 0.579 | 5.79
8 | H2869 (mesothelioma, adherent) | 0.729 | 5.48 | 0.837 | 5.74 | 0.976 | < 4.70 | 0.965 | < 5.30 | 0.898 | < 5.59 | 0.912 | < 5.00 | 0.971 | < 4.70 | 0.613 | 5.85 | 0.23 | 8.37 | 0.984 | < 5.00 | 0.974 | < 5.30 | 0.966 | < 5.99 | 0.764 | 5.14
9 | H3118 (head and neck, adherent) | 0.617 | 5.87 | 0.799 | 5.97 | 0.978 | < 4.70 | 0.854 | 5.34 | 0.921 | < 5.59 | 0.851 | 5.06 | 0.782 | 5.04 | 0.824 | 5.16 | 0.178 | 8.51 | 0.945 | < 5.00 | 0.978 | < 5.30 | 0.978 | < 5.99 | 0.816 | 5.00
10 | HCC38 (breast, adherent) | 0.871 | < 5.00 | 0.834 | 5.84 | 0.985 | < 4.70 | 0.948 | < 5.30 | 0.985 | < 5.59 | 0.941 | < 5.00 | 0.985 | < 4.70 | 0.623 | 5.84 | 0.266 | 8.19 | 0.957 | < 5.00 | 0.986 | < 5.30 | 0.986 | < 5.99 | 0.842 | 4.90
